According to PubChem BioAssay (NCATS):
This list was built around the results that the source calls inconclusive (neither active nor inactive); the mix of calls is not that of the screen. Potencies beside an inconclusive call are fits to weak or partial responses and may not hold up. Activity calls are given as the source filed them. The call rests on the fitted dose curve; in most records, active means well fitted curve in the direction sought with a large enough effect; inconclusive means small, poorly fitted or top-dose-only effect, or another doubt; inactive means no such curve, though single readings can be large; an effect the other way counts as inactive or inconclusive.

Assay: qHTS for Inhibitors of ATXN expression: Validation of Cytotoxic Assay (AID 588349)
Details: cytotoxicity counter-screen for ATXN expression inhibitors, cell viability; series mostly up to 57.1 µM
Procedure, shortened: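 Read-out: ATP-based luminescence (CellTiter Glo) reflecting viability of HEK293 cells after 72 hr incubation at 37 degrees C with a concentration series of each compound.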
Potency means the concentration at half of the fitted maximal effect; tags describe the fitted curve by direction and shape.

Compound | Potency
Fc1ccc(C(OCCN2CCN(CCCc3ccccc3)CC2)c2ccc(F)cc2)cc1 | active: 35.5 µM
NC(N)=Nc1ccc2[nH]c3c(c2c1)C[C@@]1(O)[C@H]2Cc4ccc(O)c5c4[C@@]1(CCN2CC1CC1)[C@H]3O5 | inconclusive: 22.4 µM [cytotoxic, single point]
Cc1cc2c(C(C)C)c(O)c(O)c(C=O)c2c(O)c1-c1c(C)cc2c(C(C)C)c(O)c(O)c(C=O)c2c1O | active: 10 µM
CN1C[C@H](CNC(=O)OCc2ccccc2)C[C@@H]2c3cccc4c3c(cn4C)C[C@H]21 | inconclusive: 25.1 µM [cytotoxic, partial curve]
CN1CC[C@@]2(C)c3cc(O)ccc3N(C)C12 (stereo partly specified) | active: 28.2 µM
C[C@@H]1O[C@@H](O[C@H]2C[C@@H](O)[C@]3(CO)[C@H]4[C@H](O)C[C@]5(C)[C@@H](C6=CC(=O)OC6)CC[C@]5(O)[C@@H]4CC[C@]3(O)C2)[C@H](O)[C@H](O)[C@H]1O | inconclusive: 0.316 µM [cytotoxic, full curve, poor fit]
c1ccc(CCCN2CCN(CCOC(c3ccccc3)c3ccccc3)CC2)cc1 | inconclusive: 39.8 µM [cytotoxic, single point]
N#C/C(=C/c1ccc(O)c(O)c1)C(N)=S | inconclusive: 39.8 µM [cytotoxic, partial curve, poor fit]
O=c1c2ccccc2[se]n1-c1ccccc1 | inconclusive: 39.8 µM [cytotoxic, single point]
Cc1ccc(S(=O)(=O)N[C@@H](CCCCN)C(=O)CCl)cc1 | inconclusive: 20 µM [cytotoxic, partial curve, poor fit]
C=C(C)[C@H]1Cc2c(ccc3c2O[C@@H]2COc4cc(OC)c(OC)cc4[C@@H]2C3=O)O1 | inconclusive: 22.4 µM [cytotoxic, partial curve, poor fit]

Assay: qHTS for Inhibitors of ATXN expression: Validation (AID 588378); further: nearly all actives have a fitted effect of over 75% in size
Details: cell-based ATXN2 expression reporter assay, luminescence; series mostly up to 57.1 µM
Procedure, shortened: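 Validation of ATXN2 expression inhibitors uses a cell-based luciferase fusion reporter in HEK293 cells, with 24 h compound exposure and paired viability (fluorescence) and reporter (luminescence) end-point reads.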

Compound | Potency
Fc1ccc(C(OCCN2CCN(CCCc3ccccc3)CC2)c2ccc(F)cc2)cc1 | active: 20 µM
CN(N=O)c1cc(O)ccc1O | active: 28.2 µM
NC(N)=Nc1ccc2[nH]c3c(c2c1)C[C@@]1(O)[C@H]2Cc4ccc(O)c5c4[C@@]1(CCN2CC1CC1)[C@H]3O5 | inconclusive: 39.8 µM [inhibitor, single point]
C/C=C(/C)C(=O)O[C@H]1C(C)=C2[C@H]([C@@H]1OC(=O)CCCCCCC)[C@@](C)(OC(C)=O)C[C@H](OC(=O)CCC)[C@@]1(O)[C@H]2OC(=O)[C@@]1(C)O | inconclusive: 25.1 µM [inhibitor, partial curve, poor fit]
Cc1cc2c(C(C)C)c(O)c(O)c(C=O)c2c(O)c1-c1c(C)cc2c(C(C)C)c(O)c(O)c(C=O)c2c1O | active: 7.08 µM
CN1C[C@H](CNC(=O)OCc2ccccc2)C[C@@H]2c3cccc4c3c(cn4C)C[C@H]21 | inconclusive: 11.2 µM [inhibitor, partial curve, poor fit]
CN1CC[C@@]2(C)c3cc(O)ccc3N(C)C12 (stereo partly specified) | inconclusive: 28.2 µM [inhibitor, single point]
c1ccc(CCCN2CCN(CCOC(c3ccccc3)c3ccccc3)CC2)cc1 | inconclusive: 28.2 µM [inhibitor, single point]
C=C(C)[C@H]1Cc2c(ccc3c2O[C@@H]2COc4cc(OC)c(OC)cc4[C@@H]2C3=O)O1 | inconclusive: 0.251 µM [inhibitor, full curve, poor fit]
CC(Cc1ccc(OCC(=O)O)cc1)NCC(O)c1cccc(Cl)c1 (stereo unspecified) | inactive
